Assay results: PubChem BioAssay AID2451 (National Center for Advancing Translational Sciences (NCATS), 2010)
Several values for one entry are separate records, joined by “and”; a condition that tells them apart may be missing. Identical values can stand only once. Among all 290,000 compounds or so, about 2,100 (0.72%) were called active. The inconclusive results got no clear call from the source; some entries with a clear call stand among them for comparison. Calls come from the whole dose curve; as a rule, active = well fitted inhibition curve with a large enough effect; inconclusive = small, poorly fitted or top-dose-only effect, or effect the other way; inactive = flat fitted curve, though single readings scatter. Potencies beside an inconclusive call are fits to weak or partial responses and may not hold up.

The molecules below were run against Fructose-bisphosphate aldolase (Giardia intestinalis (strain ATCC 50803 / WB clone C6)) (UniProt A8B2U2) (assay: qHTS Assay for Inhibitors of Fructose-1,6-bisphosphate Aldolase from Giardia Lamblia). Conditions: purified Giardia FBPA; activity, negative = inhibition: at 59.6 µM (top of the series) unless noted.
In short: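 40 nM FBPA preincubated 10 min at RT with compound (up to 57.5 uM final), then substrate plus GAPDH/TPI/NAD/arsenate coupling and diaphorase/resazurin added. Fluorescence read after 20 min at RT, 525/598 nm.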
% is set by controls: 0 for no effect and ±100 for the full control effect; potency is the fitted concentration of half-maximal effect; tags give direction and shape of the fitted curve.
Note: nearly all actives have a fitted effect of over 55% in size.

Chain of UniProt A8B2U2 (A8B2U2 whole entry, looked up): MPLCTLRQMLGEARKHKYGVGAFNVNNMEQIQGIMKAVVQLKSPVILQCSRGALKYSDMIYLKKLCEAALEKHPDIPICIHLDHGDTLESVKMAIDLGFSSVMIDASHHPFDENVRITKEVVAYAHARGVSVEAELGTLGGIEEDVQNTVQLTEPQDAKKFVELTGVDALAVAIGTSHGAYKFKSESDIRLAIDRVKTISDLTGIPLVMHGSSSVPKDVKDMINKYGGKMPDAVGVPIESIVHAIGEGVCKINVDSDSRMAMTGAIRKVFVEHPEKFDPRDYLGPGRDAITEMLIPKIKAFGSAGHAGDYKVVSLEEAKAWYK

SMILES	Potency	activity, negative = inhibition
Cc1ccsc1/C=N/NC(=S)NCCc1ccccc1	inactive	
CCCc1noc2c1/C(=N\O)CC(c1ccccc1)C2 (stereo unspecified)	inactive	
O=C1OCCN1C(=O)[C@H]1[C@H](c2ccccc2)C(c2ccccc2)=NN1c1ccccc1	inactive	
CCOC(=O)c1sc2nc(-c3ccco3)c3c(c2c1N)CC(C)(C)OC3	inconclusive: 15.8 µM [inhibitor, partial curve]	
Cc1cc(O)c(C=Nc2ccc(Cl)cn2)c(=O)o1	inconclusive: 14.1 µM [inhibitor, partial curve]	
COc1ccc(CCN2C(=O)CSC2c2ccc(F)cc2)cc1 (stereo unspecified)	inactive	
COc1ccc(/C=C/C(=O)NC(=S)N2CCOCC2)cc1	inconclusive: 25.1 µM [inhibitor, partial curve]	
CC1(C)Cc2ccccc2C2=C(C(=O)N3CCCCCC3)C(=O)C(=O)N21	inconclusive: 22.3 µM [inhibitor, partial curve]	
Cc1ccc(C(=O)NNC(=S)NC(=O)c2ccc(Cl)cc2)cc1	inconclusive: 15.8 µM [activator, single point]	
COc1ccc(Nc2nc3[nH]c(=O)cc(O)c3s2)cc1	inconclusive: 0.998 µM [inhibitor, full curve]	
O=C(/C=C/c1ccc(-c2ccccc2[N+](=O)[O-])o1)c1ccco1	inconclusive: 5 µM [inhibitor, partial curve]	
CC1CC(C)CN(CCCNC(=O)Cn2ncc3c(=O)oc4ccccc4c32)C1 (stereo unspecified)	inactive	
CCOC(=O)C1CCCN(CC(O)COCc2ccc3c(c2)OCO3)C1 (stereo unspecified)	inconclusive: 17.7 µM [inhibitor, partial curve]	
CCOc1ccc(C2NC(=O)C(C#N)=C(S)N2c2ccc(C)cc2)cc1OC (stereo unspecified)	inconclusive: 8.89 µM [inhibitor, full curve, poor fit]	
CCC(CC)C(=O)c1c[nH]c(C(=O)N2CCN(c3ccccc3)CC2)c1	inactive	
N#C/C(=C1/CCCCCN1)c1nc2ccccc2[nH]1	inactive	
CCCC[C@]12Cc3ccccc3C(O1)c1c(cc(-c3ccccc3)oc1=O)O2	active: 2 µM	
Cc1oc(C(=O)Nc2ccc(O)cc2)cc1COc1ccccc1	inconclusive: 14.1 µM [inhibitor, partial curve]	
CC(=O)Oc1ccc2c(=O)c(Oc3ccccc3)c(C)oc2c1OC(C)=O	inconclusive: 5.61 µM [inhibitor, partial curve]	
COC(=O)C1=C(C(=O)OC)[C@@H]2N(C)c3ccccc3[C@@]23C[C@@H](CO)N=C3N1		inactive: 7.5% [at 12.9 µM]
Cc1cc(OCCCn2ccnc2)ccc1[N+](=O)[O-]	inconclusive: 17.8 µM [inhibitor, partial curve]	
CC[C@@H](CO)NC(=O)[C@@H]1C=C2c3cccc4c3c(cn4C)C[C@H]2N(C)C1	inconclusive: 6.29 µM [inhibitor, partial curve] and inconclusive: 1.26 µM [inhibitor, full curve]	
CCOC(=O)c1ccc(NC(=S)NC(=O)c2cncc(Br)c2)cc1	inactive	

SMILES	Potency	activity, negative = inhibition
COc1ccccc1N1C(=O)NC(=O)/C(=C/c2ccc([N+](=O)[O-])s2)C1=O	inconclusive: 22.3 µM [inhibitor, partial curve]	
N#Cc1ccc(N2C(=O)[C@@H]3C(C(=O)c4cnccn4)=NN[C@@H]3C2=O)cc1	inconclusive: 15.8 µM [inhibitor, single point]	
CCCN(CC#CCOc1ccc(OC)cc1)CCC	inconclusive: 17.7 µM [inhibitor, partial curve]	
O=C(Nc1ccc2nc3ccccc3nc2c1)c1ccc(Br)cc1	inconclusive: 8.89 µM [inhibitor, partial curve]	
Cc1csc(NC(=O)CSc2nccn2C)n1	inconclusive: 11.2 µM [inhibitor, partial curve]	
Cc1ccc(Nc2nnc(SCc3cc(=O)n4ccsc4n3)s2)c(C)c1	inactive	
COc1ccc(/C=N/Nc2nncn2N)cc1Br	inconclusive: 15.8 µM [inhibitor, partial curve]	
CCNc1nc(NCC)nc(N(C)N)n1	inconclusive: 44.6 µM [inhibitor, single point]	
COc1ccccc1CN1CCN(C(=O)COc2cccc(C)c2)CC1	inconclusive: 7.92 µM [inhibitor, full curve, poor fit]	
O=[N+]([O-])c1cc(O)c2ncccc2c1	inconclusive: 4.46 µM [inhibitor, full curve]	
CCOC(=O)c1c(CC(C)C)csc1NC(=O)c1ccccc1C(=O)O	inconclusive: 17.7 µM [activator, single point]	
CCCCn1c(NS(=O)(=O)c2ccc(C)cc2)c(S(=O)(=O)c2ccccc2)c2nc3ccccc3nc21	inconclusive: 1.58 µM [inhibitor, full curve]	
CCOc1ccc(N(CC(=O)NC2CCCC(C)C2C)S(=O)(=O)c2c(C)noc2C)cc1 (stereo unspecified)	inactive	
O=C(N/N=C/c1cccnc1)c1sc2ccccc2c1Cl	inactive	
O=C1c2ccccc2C(=O)C2OC12 (stereo unspecified)	inconclusive: 17.8 µM [inhibitor, partial curve]	
O=Nc1c(-c2cccc([N+](=O)[O-])c2)nc2ncccn12	inconclusive: 8.89 µM [inhibitor, partial curve]	
CC1CCCN(S(=O)(=O)c2ccc(C(=O)Nc3nnc(C4=COCCO4)o3)cc2)C1 (stereo unspecified)	active: 28.2 µM	
CC1CCN(Cc2c(O)ccc3c2O/C(=C\c2ccco2)C3=O)CC1	inconclusive: 11.2 µM [inhibitor, partial curve]	
O=C1/C(=C\c2ccco2)CCC/C1=C\c1ccco1	active: 15.8 µM	
Cc1c(C(=O)NN)sc(=S)n1C	inconclusive: 12.6 µM [inhibitor, partial curve]	
COc1ccc(-c2nnc(NC(=O)c3ccccc3C)o2)cc1	active: 15.8 µM	
COc1cccc(OC)c1NC(=O)CN1CCN(C)CC1	inconclusive: 20 µM [inhibitor, partial curve]	
CN(CCOc1ccc(Cl)cc1)CC(O)c1ccccc1 (stereo unspecified)	inconclusive: 15.8 µM [inhibitor, partial curve]	
